Test results from the supplement of paper PMC3334620.
In all, about 33,000 sequences were measured (“E-score (-0.5 to 0.5)”: median about -0.012, highest 2% from about 0.27 on). Some of the results follow.

Biological target: T1, Vhr1 (UniProt P40522)
T1 sequence: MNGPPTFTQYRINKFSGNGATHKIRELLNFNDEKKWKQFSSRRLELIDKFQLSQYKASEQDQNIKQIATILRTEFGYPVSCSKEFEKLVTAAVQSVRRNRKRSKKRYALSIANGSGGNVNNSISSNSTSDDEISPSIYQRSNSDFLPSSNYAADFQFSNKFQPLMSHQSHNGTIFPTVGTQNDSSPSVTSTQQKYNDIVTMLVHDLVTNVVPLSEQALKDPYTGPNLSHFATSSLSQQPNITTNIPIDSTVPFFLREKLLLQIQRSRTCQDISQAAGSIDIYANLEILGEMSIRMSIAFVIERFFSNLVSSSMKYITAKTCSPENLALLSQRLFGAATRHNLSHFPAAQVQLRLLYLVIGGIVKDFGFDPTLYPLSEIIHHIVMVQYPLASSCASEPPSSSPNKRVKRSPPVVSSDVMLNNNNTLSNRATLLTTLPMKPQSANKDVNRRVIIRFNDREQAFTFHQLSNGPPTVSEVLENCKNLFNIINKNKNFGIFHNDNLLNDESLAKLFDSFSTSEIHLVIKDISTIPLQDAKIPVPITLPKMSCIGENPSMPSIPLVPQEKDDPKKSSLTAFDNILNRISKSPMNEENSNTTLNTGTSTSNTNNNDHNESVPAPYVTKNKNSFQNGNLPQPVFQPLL
Assay: PBM E-score (8-mer binding enrichment) (E-score (-0.5 to 0.5)); higher = stronger / more preferred TF binding; most listed sequences are background and not binding sites
Conditions: protein concentration: 200 nM; construct: GST-full length
Procedure: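 Universal 'all 10-mer' protein binding microarrays (Agilent AMADID 015681) probed with GST-tagged S. cerevisiae TFs (full-length or DBD) made by in vitro transcription/translation (PURExpress), about 100-200 nM. Bound TF was detected with fluorescent anti-GST. Each ungapped 8-mer (which stands for itself and its reverse complement) is scored by the PBM enrichment score (E-score), a modified Wilcoxon-Mann-Whitney statistic from -0.5 to +0.5, computed with the Universal PBM Analysis Suite. Scale: above 0.35 generally sequence-specific binding.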

| Sequence | PBM E-score |
| --- | --- |
| ACTTACAT | 0.0777 |
| AGAAACAC | -0.0185 |
| CCCGCTAC | -0.0733 |
| TCGTTACA | 0.0717 |
| GGTAGGGA | 0.105 |
| AAGGCCGG | 0.0229 |
| CAAAGTTA | -0.0997 |
| ATCTTAAT | -0.0959 |
| CTGGTTAC | -0.0787 |
| CAAGCGAA | -0.108 |
| TCGGCCCA | -0.0331 |
| ATTTGGGG | 0.0857 |
| GGCTCGGA | 0.0185 |
| GAGGCGAC | -0.205 |
| AGCAACTA | 0.0441 |
| CCTTAGTC | 0.0771 |
| AATCCATC | 0.136 |
| CTGTAGCA | -0.158 |
| GCTTAGAA | -0.117 |
| CGAACGCA | 0.25 |
| GCGCCTCA | -0.0378 |
| ATCGCGGC | 0.164 |
| CCATGCAG | 0.097 |
| ACATTTCT | -0.142 |
| AGGGCAAC | -0.169 |

| Sequence | PBM E-score |
| --- | --- |
| CACTCAAG | -0.0403 |
| AACCGGCA | -0.129 |
| AAAACAAC | -0.175 |
| CAGGTTGA | 0.2 |
| CCTCCATC | 0.00108 |
| CACATAGG | 0.0638 |
| AAAATAAG | -0.307 |
| ATTGCTTC | -0.0471 |
| GCTTCTAA | -0.281 |
| CGCAACAA | -0.112 |
| CCCTTAAA | -0.319 |
| ATTTCCAG | 0.0725 |
| CCCATATC | 0.128 |
| TAGTCGGA | 0.203 |
| CTAACTCC | -0.103 |
| TTATCGAA | -0.0152 |
| ATCGTAGA | -0.0399 |
| AACGAAAA | -0.0921 |
| AACGAGAA | 0.00986 |
| CTTACGTA | -0.262 |
| AACTTTCC | -0.178 |
| TACCTACA | -0.0123 |
| ATAAGAAA | -0.307 |
| ACTAACCG | 0.1 |
| ACCCGAGT | 0.143 |

| Sequence | PBM E-score |
| --- | --- |
| ATTTCCCC | -0.2 |
| GATGCACA | 0.0425 |
| GTTGTCGA | -0.0652 |
| ATGATGTA | 0.255 |
| AGCACATA | 0.132 |
| ACTCGGGC | 0.14 |
| AGGTGGTG | 0.0575 |
| CTATAGAA | -0.0997 |
| GATGATCC | 0.0747 |
| CTAACCGC | 0.0744 |
| CCGGAGAG | 0.0707 |
| ATGCTTTC | -0.0177 |
| GGTATTTA | -0.0772 |
| AAAAGAAG | -0.085 |
| ACGGACCG | -0.0579 |
| GAACTTGA | -0.0374 |
| ATTAGCAG | -0.0969 |
| AGTTTCGA | -0.117 |
| CCATTGGC | 0.0849 |
| AGACCTGG | -0.122 |
| TCATTAGA | 0.049 |
| ATTACTAC | -0.105 |
| TCGCGCCA | 0.00203 |
| ACAGCCGT | -0.0463 |
| CGTAGGAA | -0.077 |

| Sequence | PBM E-score |
| --- | --- |
| ATTACCGG | 0.054 |
| TCTAGTAA | -0.132 |
| CATCCTGG | 0.146 |
| ATGGATGG | 0.0901 |
| CGGCTCGA | 0.185 |
| ACAAAGCG | 0.0155 |
| GATTAACA | 0.195 |
| ACGGAGAC | 0.123 |
| GCTAGCGA | -0.0627 |
| AAGTTATA | -0.0484 |
| ACCGAACC | 0.0248 |
| ATGCTAGA | -0.0856 |
| GGCGTATA | 0.0324 |
| TACTGATA | 0.124 |
| AGTCACAC | 0.415 |
| CTTTTTGC | -0.0773 |
| AGATGTAG | 0.0546 |
| ATTTAGAC | -0.138 |
| GCGCGTAA | 0.0198 |
| CTAGTTCA | -0.0839 |
| AGGGATAG | -0.107 |
| AGATCGGC | -0.0848 |
| AACTTTCA | -0.183 |
| CTGACCGA | 0.12 |
| GCTCTCCA | -0.262 |

| Sequence | PBM E-score |
| --- | --- |
| AAAGAACC | -0.0278 |
| GCAGCGTA | -0.0477 |
| AAAGGCCT | -0.366 |
| AACCCCAG | -0.0415 |
| AACTGCGA | -0.0936 |
| ATTTTTCC | -0.211 |
| CTGGAAGA | -0.0674 |
| AACCCCCG | -0.156 |
| GCTGCTGA | 0.127 |
| AGGTGCGA | -0.00031 |
| AGAAAGAA | -0.25 |
| CAAGCTGG | -0.136 |
| TAGATAGA | -0.177 |
| TCATTCGA | 0.072 |
| CCAACGCC | -0.203 |
| ATTGCAAC | 0.0901 |
| AAACCGGG | 0.132 |
| GATGGTGA | 0.188 |
| CCCACCAC | -0.00821 |
| AACCTCCA | -0.132 |
| GACTGCGA | 0.234 |
| GCGGGAAC | -0.0148 |
| ATGCCTAA | -0.325 |
| CTAACGTC | -0.0791 |
| CGCTGGAG | 0.125 |

| Sequence | PBM E-score |
| --- | --- |
| CACGAACG | 0.0646 |
| ACCGCCTG | 0.0926 |
| ATCTACCA | 0.151 |
| GAGTGACA | 0.123 |
| GAGGACTA | 0.097 |
| AGGACACG | -0.00736 |
| AATTATCA | 0.0129 |
| AACTGGAC | -0.0838 |
| ATACGCAA | 0.0132 |
| ACTGGGGA | -0.0871 |
| AGTCTTGA | 0.00019 |
| AAGAAGCG | -0.176 |
| CGATTCAC | 0.144 |
| GAACGAGC | 0.099 |
| AGGGTCGC | 0.0406 |
| AATAAGCA | -0.114 |
| CCGGGCTC | 0.0188 |
| ACGCCAAG | -0.0928 |
| CACGAGGA | 0.0461 |
| CCGAGCTA | -0.085 |
| CATGCAAG | 0.119 |
| AGATGAGC | 0.0292 |
| TATGTAGA | -0.093 |
| GCACGCAA | -0.116 |
| CGCCTAGC | -0.213 |

| Sequence | PBM E-score |
| --- | --- |
| CGCCTACA | 0.0638 |
| AGTAACAA | 0.113 |
| CTACAGAG | -0.0563 |
| GGAATATA | 0.159 |
| ATGGTGGC | 0.0115 |
| GGAACGGA | -0.123 |
| AAAAGTGA | 0.0469 |
| ATATTTAC | 0.0659 |
| CTGCGTCC | -0.0153 |
| CAATCGGG | -0.0442 |
| GGCTTTAA | -0.196 |
| ATCGTGAG | 0.0346 |
| CGCGTCAA | 0.0808 |
| ATACTAAA | -0.0617 |
| AGCCAAAC | 0.118 |
| CGAATCTC | -0.0376 |
| ATCCTGTA | -0.0631 |
| AGCAAATG | -0.00644 |
| GGCATTAC | 0.0696 |
| TAGAGACA | -0.098 |
| GAGATCTC | -0.229 |
| CATCAAAG | -0.0712 |
